# Reference: the supplement of paper PMC8728848
# The list shows a part of the results.
# B1: Mermaid3 (Stilbonema majum) (protein)
# chain: MGSSHHHHHHSSGLVPRGSHMAASGWLRSPQGTVVKLYRRSLSWSKADEFCKDVDGRLVVDRTADMHLFLIKNVLKEKKSRVWVGLRRTASHSRTWIWSDGTRQNEGDLDANLWLRDEPNDAAGEEECALFMYSPWEKAWGLNDYLCRGGCRNYQFICEKWIR
# Columns and labels:
# Assay in all cases: glycan array binding signal (z-score within array); higher = stronger binding
# Details in all cases: glycan notation: IUPAC condensed, linker removed
# [1] = biological target: Gal(b1-4)GlcNAc(b1-3)Gal(b1-4)GlcNAc(b1-3)Gal(b1-4)GlcNAc(b1-3)Gal(b1-4)GlcNAc(b1-2)Man(a1-3)[Gal(b1-4)GlcNAc(b1-3)Gal(b1-4)GlcNAc(b1-3)Gal(b1-4)GlcNAc(b1-3)Gal(b1-4)GlcNAc(b1-2)Man(a1-6)]Man(b1-4)GlcNAc(b1-4)[Fuc(a1-6)]GlcNAc
# Outline: (§1)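 The binding signal is a Z-score computed within each array and averaged over linkers. Arrays of the same protein sequence at different concentrations or buffers were also averaged together. Data originate from 3228 arrays in the Consortium for Functional Glycomics database, kept only where the protein sequence was available.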
# [2] = biological target: Gal(b1-4)GlcNAc(b1-3)Gal(b1-4)GlcNAc(b1-3)Gal(b1-4)GlcNAc(b1-3)Gal(b1-4)GlcNAc(b1-2)[Gal(b1-4)GlcNAc(b1-3)Gal(b1-4)GlcNAc(b1-3)Gal(b1-4)GlcNAc(b1-3)Gal(b1-4)GlcNAc(b1-6)]Man(a1-6)[Gal(b1-4)GlcNAc(b1-3)Gal(b1-4)GlcNAc(b1-3)Gal(b1-4)GlcNAc(b1-3)Gal(b1-4)GlcNAc(b1-2)Man(a1-3)]Man(b1-4)GlcNAc(b1-4)[Fuc(a1-6)]GlcNAc
# Outline: as §1
# [3] = biological target: Gal(b1-4)GlcNAc(b1-3)Gal(b1-4)GlcNAc(b1-3)Gal(b1-4)GlcNAc(b1-3)Gal(b1-4)GlcNAc(b1-3)Gal(b1-4)GlcNAc(b1-2)Man(a1-3)[Gal(b1-4)GlcNAc(b1-3)Gal(b1-4)GlcNAc(b1-3)Gal(b1-4)GlcNAc(b1-3)Gal(b1-4)GlcNAc(b1-3)Gal(b1-4)GlcNAc(b1-2)Man(a1-6)]Man(b1-4)GlcNAc(b1-4)GlcNAc
# Outline: as §1
# [4] = biological target: Gal(b1-4)GlcNAc(b1-3)Gal(b1-4)GlcNAc(b1-3)Gal(b1-4)GlcNAc(b1-3)Gal(b1-4)GlcNAc(b1-3)Gal(b1-4)GlcNAc(b1-2)Man(a1-3)[Gal(b1-4)GlcNAc(b1-3)Gal(b1-4)GlcNAc(b1-3)Gal(b1-4)GlcNAc(b1-3)Gal(b1-4)GlcNAc(b1-3)Gal(b1-4)GlcNAc(b1-2)Man(a1-6)]Man(b1-4)GlcNAc(b1-4)[Fuc(a1-6)]GlcNAc
# Outline: as §1
# [5] = biological target: Gal(b1-4)GlcNAc(b1-3)Gal(b1-4)GlcNAc(b1-3)Gal(b1-4)GlcNAc(b1-3)Gal(b1-4)GlcNAc(b1-3)Gal(b1-4)GlcNAc(b1-2)[Gal(b1-4)GlcNAc(b1-3)Gal(b1-4)GlcNAc(b1-3)Gal(b1-4)GlcNAc(b1-3)Gal(b1-4)GlcNAc(b1-3)Gal(b1-4)GlcNAc(b1-6)]Man(a1-6)[Gal(b1-4)GlcNAc(b1-3)Gal(b1-4)GlcNAc(b1-3)Gal(b1-4)GlcNAc(b1-3)Gal(b1-4)GlcNAc(b1-3)Gal(b1-4)GlcNAc(b1-2)Man(a1-3)]Man(b1-4)GlcNAc(b1-4)[Fuc(a1-6)]GlcNAc
# Outline: as §1
# [6] = biological target: Gal(b1-4)GlcNAc(b1-3)Gal(b1-4)GlcNAc(b1-3)Gal(b1-4)GlcNAc(b1-3)Gal(b1-4)GlcNAc(b1-3)Gal(b1-4)GlcNAc(b1-3)Gal(b1-4)GlcNAc(b1-2)Man(a1-3)[Gal(b1-4)GlcNAc(b1-3)Gal(b1-4)GlcNAc(b1-3)Gal(b1-4)GlcNAc(b1-3)Gal(b1-4)GlcNAc(b1-3)Gal(b1-4)GlcNAc(b1-3)Gal(b1-4)GlcNAc(b1-2)Man(a1-6)]Man(b1-4)GlcNAc(b1-4)GlcNAc
# Outline: as §1
# [7] = biological target: Gal(b1-4)GlcNAc(b1-3)Gal(b1-4)GlcNAc(b1-3)GalNAc
# Outline: as §1
# [8] = biological target: Gal(b1-4)GlcNAc(b1-3)Gal(b1-4)GlcNAc(b1-3)[Gal(b1-4)GlcNAc(b1-3)Gal(b1-4)GlcNAc(b1-6)]GalNAc
# Outline: as §1
# [9] = biological target: Gal(b1-4)GlcNAc(b1-3)Gal(b1-4)GlcNAc(b1-6)[Gal(b1-3)]GalNAc
# Outline: as §1
# [10] = biological target: Gal(b1-4)GlcNAc(b1-3)Gal(b1-4)[Fuc(a1-3)]GlcNAc(b1-3)Gal(b1-4)[Fuc(a1-3)]GlcNAc
# Outline: as §1
# [11] = biological target: Gal(b1-4)GlcNAc(b1-3)GalNAc
# Outline: as §1
# [12] = biological target: Gal(b1-4)GlcNAc(b1-3)[Fuc(a1-3)GlcNAc(b1-6)]Gal(b1-4)Glc
# Outline: as §1
# [13] = biological target: Gal(b1-4)GlcNAc(b1-3)[Gal(b1-4)GlcNAc(b1-6)]Gal(b1-4)GlcNAc
# Outline: as §1
# [14] = biological target: Gal(b1-4)GlcNAc(b1-3)[GlcNAc(b1-6)]Gal(b1-4)GlcNAc
# Outline: as §1
# [15] = biological target: Gal(b1-4)GlcNAc(b1-6)Gal(b1-4)GlcNAc
# Outline: as §1
# [16] = biological target: Gal(b1-4)GlcNAc(b1-6)GalNAc
# Outline: as §1
# [17] = biological target: Gal(b1-4)GlcNAc(b1-6)[Gal(b1-3)]GalNAc
# Outline: as §1
# [18] = biological target: Gal(b1-4)GlcNAc(b1-6)[Gal(b1-4)GlcNAc(b1-3)]GalNAc
# Outline: as §1
# Gal(b1-4)GlcNAc6P = biological target: Gal(b1-4)GlcNAc6P
# Outline: as §1
# Gal(b1-6)Gal = biological target: Gal(b1-6)Gal
# Outline: as §1
# Gal3S(b1-3)GalNAc = biological target: Gal3S(b1-3)GalNAc
# Outline: as §1
# Gal3S(b1-3)GlcNAc = biological target: Gal3S(b1-3)GlcNAc
# Outline: as §1
# [19] = biological target: Gal3S(b1-3)[Fuc(a1-4)]GlcNAc
# Outline: as §1
binder,measurement,setting,value
B1,glycan array binding signal (z-score),[1],-0.034
same,glycan array binding signal (z-score),[2],0.088
same,glycan array binding signal (z-score),[3],-0.088
same,glycan array binding signal (z-score),[4],-0.537
same,glycan array binding signal (z-score),[5],0.124
same,glycan array binding signal (z-score),[6],-0.526
same,glycan array binding signal (z-score),[7],-0.185
same,glycan array binding signal (z-score),[8],-0.118
same,glycan array binding signal (z-score),[9],0.599
same,glycan array binding signal (z-score),[10],-0.554
same,glycan array binding signal (z-score),[11],-0.501
same,glycan array binding signal (z-score),[12],-0.182
same,glycan array binding signal (z-score),[13],-0.074
same,glycan array binding signal (z-score),[14],4.93
same,glycan array binding signal (z-score),[15],-0.287
same,glycan array binding signal (z-score),[16],0.236
same,glycan array binding signal (z-score),[17],1.64
same,glycan array binding signal (z-score),[18],-0.123
same,glycan array binding signal (z-score),Gal(b1-4)GlcNAc6P,-0.046
same,glycan array binding signal (z-score),Gal(b1-6)Gal,1.95
same,glycan array binding signal (z-score),Gal3S(b1-3)GalNAc,0.422
same,glycan array binding signal (z-score),Gal3S(b1-3)GlcNAc,0.075
same,glycan array binding signal (z-score),[19],-0.275
